Laboratory results from PubChem BioAssay AID1159614 (National Center for Advancing Translational Sciences (NCATS), 2016).
About 65 (0.1%) of roughly 45,000 compounds were called active. The call rests on the fitted dose curve; in most records, active means well fitted activation curve with a large enough effect; inconclusive means small, poorly fitted or top-dose-only effect; inactive means no such curve, though single readings can be large or run the other way. Some of the results follow.

molecular target: Galactocerebrosidase (Homo sapiens) (UniProt P54803); assay: A Novel Cell-Based Assay to Identify Small Molecules for B -Galactocerebrosidase; conditions: 145M-Twi-hGALC-G270D cells (Twitcher mouse brain line with human GALC G270D), HMU-beta-Gal fluorescence, 48 h; series mostly up to 57.5 µM; activation: at the top concentration; further: 0% is about no effect; nearly all actives have a fitted effect of over 65% in size
Outline: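 Brain-derived Twitcher mouse 145M-Twi cells stably expressing human GALC-G270D or wild-type GALC, treated live, then residual GALC activity read by fluorescence of HMU-b-Gal substrate (0.1 mM final) in citrate-phosphate buffer pH 5.2 with sodium taurocholate. Signal increase indicates enhancement.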

UniProt P54803, sequence (P54803 whole entry, looked up): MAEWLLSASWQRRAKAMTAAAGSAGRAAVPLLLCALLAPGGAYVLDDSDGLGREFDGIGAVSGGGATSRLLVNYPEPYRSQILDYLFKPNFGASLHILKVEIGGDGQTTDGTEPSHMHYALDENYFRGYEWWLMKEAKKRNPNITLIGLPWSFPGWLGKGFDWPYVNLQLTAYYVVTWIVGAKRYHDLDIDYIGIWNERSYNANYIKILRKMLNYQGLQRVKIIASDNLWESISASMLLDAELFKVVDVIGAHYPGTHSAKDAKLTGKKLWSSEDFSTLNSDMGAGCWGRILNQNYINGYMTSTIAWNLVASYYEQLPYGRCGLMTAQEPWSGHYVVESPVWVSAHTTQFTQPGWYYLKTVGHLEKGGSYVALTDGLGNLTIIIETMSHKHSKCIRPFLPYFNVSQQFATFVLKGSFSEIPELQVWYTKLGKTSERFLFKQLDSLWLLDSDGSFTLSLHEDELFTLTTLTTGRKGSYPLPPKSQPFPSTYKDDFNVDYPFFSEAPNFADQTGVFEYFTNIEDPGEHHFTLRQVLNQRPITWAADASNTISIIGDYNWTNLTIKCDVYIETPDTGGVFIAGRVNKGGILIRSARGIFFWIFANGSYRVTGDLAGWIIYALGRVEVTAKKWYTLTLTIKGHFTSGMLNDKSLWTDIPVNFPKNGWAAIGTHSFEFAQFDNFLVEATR

activation, inactive:
Cc1cc(C)c(NC(=O)CSc2nc(C)cc(C)c2C#N)c(C)c1 -15.1%
CC(=O)c1ccc(NC(=O)C2CCN(S(=O)(=O)c3ccc4c(c3)CCCN4C(=O)C3CCC3)CC2)cc1 10.3%
Cc1ccc2oc(=O)c3cnn(CC(=O)N(C)c4ccc(F)cc4)c3c2c1 -21.4%
CCOc1ccc(-n2c(SCC(=O)Nc3ccccc3OC)nc3c(oc4ccccc43)c2=O)cc1 1.65%
COc1ccccc1OCC(=O)N(Cc1ccc(N(C)C)cc1)CC1CCCO1 (centres undefined) -5.96%
COc1ccc(Nc2ccc3cc(S(=O)(=O)N4CCCC4)ccc3n2)cc1Cl -11.8%
CCCSc1nc(=O)c2c(n1C)NC(=O)CC2c1cccc(F)c1F (centres undefined) -7.56%
O=C(Cn1c(-c2cccs2)cc2cc(Cl)ccc21)NCc1ccccc1 -9.4%
COc1ccc(-n2nc3ccc(NC(=O)COc4ccc(C)c(C)c4)cc3n2)cc1 -15%
COc1ccc(N2CCN(C(=O)Cc3c(C(=O)O)c(C)cn3C)CC2)cc1 -6.98%
CCOC(=O)c1c(NC(=O)CCCOc2ccc(C(C)(C)C)cc2)sc2c1CCC2 -10%
CCc1ccccc1NC(=O)CN(Cc1ccccc1)S(=O)(=O)c1ccc2nc(C)sc2c1 -9.23%
CC(=O)c1cccc(NC(=O)c2cnn(-c3cccc(C)c3)c2-n2cccc2)c1 -15%
Cc1ccc(-c2c(C(=O)N3CCN(c4cccc(C)c4C)CC3)oc(=O)c3ccccc23)cc1 5.58%
CCC(=O)N1CCc2cc(Br)cc(S(=O)(=O)NCCc3ccccc3Cl)c21 -8.2%
Cc1cccc(NC(=O)Cn2cc(S(=O)(=O)c3ccc(F)cc3)c(=O)c3cc4c(cc32)OCO4)c1 -1.05%
CCc1cc(C(=O)Nc2cnn(Cc3ccc(F)cc3)c2)no1 -17.4%
O=C(O)COC(=O)Cc1ccccc1Nc1c(Cl)cccc1Cl -13.1%
COc1ccc(OC)c(CCNC(=O)c2cc3c(-c4ccccc4F)nn(C)c3s2)c1 -8.88%
COc1ccccc1CCNC(=O)CCn1c(=O)c2cccn2c2ccc(F)cc21 0.535%
CCOc1cc(C(=O)Nc2ccc3oc(-c4ccc(CC)cc4)nc3c2)cc(OCC)c1OCC -7.65%
COc1ccc(CCNC(=O)CCc2c(C)nc3cc(-c4ccccc4)nn3c2C)cc1OC -12.3%
Cc1cc(C)cc(NC(=O)CSCn2nnc3c(=O)[nH]c(Cc4ccc(F)cc4)nc32)c1 -14%
CCCCN(Cc1ccccc1)C(=O)CN(C)S(=O)(=O)c1ccc2c(c1)c(=O)n(C)c(=O)n2C 3.03%
Cc1ccc(OCC(=O)Nc2ccc3nc(SCc4ccccc4)sc3c2)cc1 1.54%
CCc1cc2c(cc3c(=O)n(CCCC(=O)NCc4ccccc4Cl)nc(CC)n32)s1 -15.4%
Cc1cccc(OCc2ccc(-c3nc(C#N)c(N4CCC(C(N)=O)CC4)o3)o2)c1 5.29%
CCOC(=O)c1cccc(NC(=O)Cn2c(=O)nc(-c3ccccc3)c3ccccc32)c1 -16.4%
O=C(Nc1cc(C(F)(F)F)ccc1Cl)c1cc(S(=O)(=O)NCc2ccccc2)ccc1F -8.34%
Cc1noc(/C=C/c2ccco2)c1S(=O)(=O)N1CCC(C(=O)Nc2ccc(F)cc2F)CC1 -0.153%
COCCCNC(=O)CC(c1cc(OC)c(OC)c(OC)c1)N1Cc2ccccc2C1=O (centres undefined) 7.64%
COc1ccc(NC(=O)C(Cc2ccccc2)NS(=O)(=O)c2ccc(Br)s2)cc1OC (centres undefined) -14%
CC(=O)Nc1cc(C(=O)NCc2ccccc2)ccc1Sc1ccc(C)cc1 -10.1%
CCCCNc1sc(S(=O)(=O)CC)nc1S(=O)(=O)c1ccc(C)cc1 -11.1%
Cc1ccc(N2CC(c3nnc(Cc4ccc(Cl)cc4)o3)CC2=O)cc1 (centres undefined) -12%
CNS(=O)(=O)c1cn(CC(=O)Nc2ccc(F)cc2F)cc1S(=O)(=O)NC -4.05%
CN(C(=O)CSc1cn(CC(=O)N2CCCCCC2)c2ccccc12)c1ccccc1 5.61%
O=C(NC1CCCCC1)c1ccc(Cn2c(SCc3cccc(F)c3)nc3cccnc32)cc1 0.65%
Cc1cccc(C(=O)Nc2ccc(-c3nc4ccccc4s3)c(C)c2)c1 -20.8%
Cc1ccc(CNC(=O)C(C(C)C)N2Cc3ccccc3C2=O)cc1 (centres undefined) -13.2%
COc1ccc(N2CCN(CC(O)COc3ccccc3C(C)(C)C)CC2)cc1 (centres undefined) -20.9%
CCN(c1ccc(OC)cc1)S(=O)(=O)c1c(C(=O)N2CCCCCC2)c(C)n(C)c1C -13.3%
CCOc1ccc(OCC)c(NC(=O)c2cc(C)nc3c2c(C)nn3-c2cccc(Cl)c2C)c1 -12.6%
CCOCCCNC(=O)c1cnc2sc(N3CCCCCC3)nn2c1=O -0.548%
CCc1ccc(NC(=O)CSC2=Nc3ccccc3C3=NC(CCC(=O)NCc4ccccc4OC)C(=O)N23)cc1 (centres undefined) -12.9%
CCOc1ccc(NC(=O)Cn2c(=O)n(CCc3ccccc3)c(=O)c3c4c(sc32)CN(C(C)=O)CC4)cc1 -16.3%
Cc1nn(-c2ccccc2)c(OC(=O)c2ccc(Br)cc2)c1S(=O)(=O)c1ccccc1 2.1%
O=C(CCc1nc(-c2ccccc2F)no1)Nc1cccc(C(F)(F)F)c1 0.827%
Cc1ccc(CC(=O)N(Cc2nc(-c3ccc(C)cc3)no2)C(C)C)cc1 -37.2%
Cc1ccc(C)c(N2CCN(C(=O)c3cccc(-n4c(C)nc5cccnc54)c3)CC2)c1 3%
CCn1c(CN2CCN(c3cccc(Cl)c3)CC2)nc2c1c(=O)[nH]c(=O)n2C -3.82%
COCCCNc1ncnc2c1c(-c1ccccc1)cn2-c1ccc(C)c(Cl)c1 -10.3%
Cc1cc2nn(-c3ccc(Cl)cc3)nc2cc1NC(=O)C(C)C 7.18%
COc1ccc2c(c1)c1c(c(=O)n(-c3ccccc3C)c(=O)n1Cc1ccccc1C)n2C -18.1%
COc1ccc(OC)c(NC(=O)CN2C(=O)CC(c3ccco3)Sc3ccccc32)c1 (centres undefined) -14.5%
OC1(c2ccc(Cl)c(C(F)(F)F)c2)CCN(CCCC(c2ccc(F)cc2)c2ccc(F)cc2)CC1 -16%
O=C(COc1ccc(Cl)cc1)Nc1cc(-c2ccccc2)no1 -20.9%
Cn1c(=O)c2sccc2n2c(CCCC(=O)Nc3ccc(F)cc3F)nnc12 -16%
Cn1nc(C(=O)N2CCN(c3ccccc3)CC2)c2c1-c1ccccc1SC2 -6.19%
O=C(c1ccc2c(c1)OCO2)c1cn(Cc2ccc(F)cc2)c2ccccc2c1=O -13.8%
CCCCN(CC)C(=O)Cn1c(=O)n(-c2ccc(OCC)cc2)c(=O)c2c3c(sc21)CCC3 -16.4%
CCCOC(=O)c1c(NC(=O)c2nc3ncccn3n2)sc(C(=O)OCC)c1C -15.8%
CC(=O)c1cccc(-n2c(=O)c3c4c(sc3n(Cc3ccccc3Cl)c2=O)CN(C(C)=O)CC4)c1 -16.8%
COc1cc(OC)c(C2C=C(C(=O)O)Nc3ncnn32)cc1OC (centres undefined) -3.43%
Cc1ccc(C2CCN(C(=O)c3cnn(-c4ccccc4Cl)c3C3CCN(C(=O)OC(C)(C)C)CC3)C2)cc1 (centres undefined) -4.09%
Cc1c(F)cccc1NC(=O)C1CCCN1S(=O)(=O)c1ccc(F)cc1 (centres undefined) -15.8%
COc1ccccc1CNC(=O)c1cn(C)c2ccc(S(=O)(=O)N3CCC(C)CC3)cc2c1=O -19.4%
Cc1ccc(C(=O)Nc2cccc(C(=O)OCc3cc(=O)n4c5c(sc4n3)CCCC5)c2)cc1 -9.25%
Cc1ccc(NC(=O)C2CCCN(S(=O)(=O)c3cccc4cccnc34)C2)cc1Cl (centres undefined) -9%
Cc1ccc2[nH]cc(C(c3ccccc3)c3cccs3)c2c1 (centres undefined) -19.6%
COc1cc(OC)c(NC(=O)c2ccc3nc(C(C)C)oc3c2)cc1Cl -7.03%
CCOC(=O)c1c(C)n(-c2ccccc2)c2ccc(OC(=O)c3ccccc3Cl)cc12 -12.7%
CC(C)COc1ccc(C(=O)NCC2OCCc3ccccc32)cc1 (centres undefined) -9.4%
COc1ccccc1N1CCN(C(=O)C2CCN(S(=O)(=O)c3cccc4nonc34)CC2)CC1 -3.25%
Nc1ncc(S(=O)(=O)NCc2ccccc2F)cn1 4.18%
Cc1ccc(Nc2cc(C(=O)NC3CCCC3)c3ccccc3n2)cc1C -6.36%
NC(=O)c1c(NC(=O)c2noc3c2CCCC3)sc2c1CCCC2 -24.2%
CCOc1ccc(CCNC(=O)C2CCCN(c3nnc(C)c4c(C)n(-c5ccccc5)nc34)C2)cc1 (centres undefined) -14.3%
CCOC(=O)Cn1nc(C)c(NC(=O)COc2ccc(OC)cc2)c1C -14.9%
Cc1ccccc1C(=O)Nc1ccc(NC(=O)c2cccs2)cc1 -12.6%
CCn1c2ccccc2c2cc(NC(=O)COc3cc(C)c(Cl)c(C)c3)ccc21 -8.42%
COc1ccc2oc(=O)c(C(=O)NCCc3c(C)[nH]c4c(C)cccc34)cc2c1 -4.63%
CCOc1cc2[nH]c(=O)n(CCC(=O)N3CCN(c4cccc(Cl)c4)CC3)c(=O)c2cc1OCC -17%
COC(=O)c1cc(NC(=O)CCS(=O)(=O)c2cc(Br)cc3c2N(C(=O)C2CC2)CC3)cc(C(=O)OC)c1 -9.56%
CC(=O)N1CCCc2cc(S(=O)(=O)N3CCC(C(=O)NCc4ccc(F)cc4)CC3)ccc21 -15.3%
CC1(C)O[C@@H]2C[C@H]3[C@@H]4CCC5=CC(=O)C=C[C@]5(C)[C@@]4(F)[C@@H](O)C[C@]3(C)[C@]2(C(=O)CO)O1 -7.85%
COc1ccc(C(=O)NCC(c2ccco2)S(=O)(=O)c2ccccc2)cc1 (centres undefined) -9.15%
CCOC(=O)c1c(C)oc2nc(C)nc(N3CCN(c4ccc(C)cc4C)CC3)c12 -12.9%
Cc1nc(-c2ccc(F)cc2)sc1CCNC(=O)c1ccccc1 -6.18%
Cc1cccc(NC(=O)C2CCC(CNS(=O)(=O)c3ccc4c(c3)CCCC(=O)N4)CC2)c1C (centres undefined) -15%
CCN1CCOC(=O)C1CC(=O)Nc1ccccc1C(F)(F)F (centres undefined) 18.5%
CCCN(C(=O)C1CCN(S(=O)(=O)c2c(C)noc2/C=C/c2ccc(C)cc2)CC1)c1ccccc1F 1.89%
CCCN(Cc1cc2cc(C)ccc2[nH]c1=O)C(=O)c1cccc(Cl)c1 -12.3%
COC(=O)c1cc(C)nc2c1c(=O)nc(SCc1cc(C)ccc1C)n2C1CC1 -13.6%
